Results taken from PubChem BioAssay (Tox21).
Several values for one entry are separate records, joined by “and”; a condition that tells them apart may be missing. Identical values can stand only once. Inconclusive results, whose numbers are uncertain, are shown with a selection of clear calls. Where the call is inconclusive, the potency comes from a doubtful curve fit. Activity calls are given as the source filed them. Unless noted, the call rests on the fitted dose curve; in most records, active means well fitted curve in the direction sought with a large enough effect in the repeat runs; inconclusive means weak or mixed curves; inactive means no such curve, though single readings can be large; an effect the other way counts as inactive or inconclusive.

How the values were obtained:
[1] = target: Estrogen receptor (Homo sapiens) (UniProt P03372); test: qHTS assay to identify small molecule agonists of the estrogen receptor alpha (ER-alpha) signaling pathway using the BG1 cell line (AID 743079); conditions: BG1Luc4E2 cells, ERE-luciferase agonist, 22 h; activation: at 70.3 µM (top of the series) unless noted; further: nearly all actives have a fitted effect of over 20% in size; on activation: on the % scale 0 is the no-effect control and ±100 the full control effect
Sequence of UniProt P03372 (P03372 whole entry, looked up): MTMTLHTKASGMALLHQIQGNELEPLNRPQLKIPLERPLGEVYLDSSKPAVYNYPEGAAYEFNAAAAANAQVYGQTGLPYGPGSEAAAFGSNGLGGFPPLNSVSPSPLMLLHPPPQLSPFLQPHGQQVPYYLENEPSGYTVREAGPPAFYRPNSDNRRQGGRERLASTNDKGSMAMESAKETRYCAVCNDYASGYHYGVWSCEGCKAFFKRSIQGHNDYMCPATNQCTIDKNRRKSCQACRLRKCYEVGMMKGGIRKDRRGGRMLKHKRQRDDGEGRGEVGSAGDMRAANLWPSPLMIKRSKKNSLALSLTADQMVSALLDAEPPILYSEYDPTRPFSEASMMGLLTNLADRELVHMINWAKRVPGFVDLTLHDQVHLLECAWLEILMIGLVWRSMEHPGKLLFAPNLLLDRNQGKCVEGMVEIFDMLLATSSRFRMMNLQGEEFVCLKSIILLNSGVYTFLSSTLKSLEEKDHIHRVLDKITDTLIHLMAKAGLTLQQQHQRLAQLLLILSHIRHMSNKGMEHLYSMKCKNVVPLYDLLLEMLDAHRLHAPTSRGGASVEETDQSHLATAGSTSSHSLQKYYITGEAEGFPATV

[2] = qHTS assay to identify small molecule antagonists of the estrogen receptor alpha (ER-alpha) signaling pathway using the BG1 cell line (AID 743080; calls by dose curve;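 further: BG1 cells stimulated with 17beta-estradiol alongside compound; nearly all actives have a fitted effect of over 25% in size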; on activity change, negative = inhibition: on the % scale 0 is the no-effect control and ±100 the full control effect); conditions: BG1Luc4E2 ERE-luciferase antagonist mode, luminescence
Method in brief: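 After 5 days in phenol-red-free 10% charcoal-stripped FBS medium, BG1-Luc-4E2 cells were seeded, left 24 h at 37 C, co-treated with compounds and 17beta-estradiol for 21.5 h, then assayed for viability and luciferase.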

[3] = qHTS assay to identify small molecule antagonists of the estrogen receptor alpha (ER-alpha) signaling pathway using the BG1 cell line - cell viability counter screen (AID 743081); conditions: BG1Luc4E2 viability, CellTiter-Fluor, 22 h; activity change, negative = cytotoxicity: at 70.3 µM (top of the series);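 further: compound given together with 17beta-estradiol as the ER stimulus; nearly all actives have a fitted effect of over 45% in size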
[4] = target: Aryl hydrocarbon receptor (Homo sapiens) (UniProt P35869); test: qHTS assay to identify small molecule that activate the aryl hydrocarbon receptor (AhR) signaling pathway (AID 743085); further: nearly all actives have a fitted effect of over 15% in size;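 on activation: HG2L7.5c1 human HepG2 liver cells with stably integrated DRE-driven firefly reporter; on the % scale 0 is the no-effect control and ±100 the full control effect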
Sequence of UniProt P35869 (P35869 whole entry, looked up): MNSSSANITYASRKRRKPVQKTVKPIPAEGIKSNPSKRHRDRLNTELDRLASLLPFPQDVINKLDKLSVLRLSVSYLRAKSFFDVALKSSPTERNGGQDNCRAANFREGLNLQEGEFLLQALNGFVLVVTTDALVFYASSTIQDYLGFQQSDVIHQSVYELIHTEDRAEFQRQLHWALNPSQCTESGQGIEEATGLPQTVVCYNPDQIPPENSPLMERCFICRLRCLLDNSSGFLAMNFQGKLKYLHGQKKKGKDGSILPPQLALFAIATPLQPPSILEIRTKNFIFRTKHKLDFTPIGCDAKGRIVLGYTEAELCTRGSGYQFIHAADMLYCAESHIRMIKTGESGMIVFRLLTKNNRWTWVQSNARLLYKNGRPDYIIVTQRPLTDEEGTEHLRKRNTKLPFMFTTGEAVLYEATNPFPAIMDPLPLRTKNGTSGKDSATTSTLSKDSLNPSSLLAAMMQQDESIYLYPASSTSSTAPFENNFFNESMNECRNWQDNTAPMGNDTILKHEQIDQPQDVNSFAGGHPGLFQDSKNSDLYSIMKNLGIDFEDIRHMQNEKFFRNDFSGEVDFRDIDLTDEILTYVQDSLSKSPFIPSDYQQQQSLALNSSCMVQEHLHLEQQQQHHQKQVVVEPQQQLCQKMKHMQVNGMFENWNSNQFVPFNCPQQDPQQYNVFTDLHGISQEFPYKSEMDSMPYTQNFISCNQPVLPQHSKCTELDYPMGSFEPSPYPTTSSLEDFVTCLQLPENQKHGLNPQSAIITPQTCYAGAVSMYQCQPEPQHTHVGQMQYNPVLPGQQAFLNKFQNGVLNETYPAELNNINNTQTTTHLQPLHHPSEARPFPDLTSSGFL
Method in brief: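 Reporter assay in engineered HepG2 line HG2L7.5c1, whose plasmid carries twenty dioxin responsive elements upstream of firefly luciferase. Treatment lasted 24 h at 37C; ONE-Glo luminescence gauged induction.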

[5] = qHTS assay to identify small molecule antagonists of the peroxisome proliferator-activated receptor gamma (PPARg) signaling pathway - cell viability counter screen (AID 743194); conditions: PPARg-bla HEK293H viability, CellTiter-Glo luminescence, 17 h, co-treated with 50 nM rosiglitazone; activity change, negative = cytotoxicity: at 62.6 µM (top of the series) unless noted; further: nearly all actives have a fitted effect of over 55% in size
Method in brief: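 Viability was measured as CellTiter-Glo luminescence in GeneBLAzer PPARg UAS-bla HEK293H cells. These cells had been exposed 17 h at 37 C to compounds together with rosiglitazone at 50 nM final, with the beta-lactamase readout taken in the same wells.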

[6] = target: Peroxisome proliferator-activated receptor gamma (Homo sapiens) (UniProt P37231); test: qHTS assay to identify small molecule agonists of the peroxisome proliferator-activated receptor gamma (PPARg) signaling pathway (AID 743094; active means well fitted activation curve with a large enough effect in the signal ratio in the repeat runs, not every such curve was filed as active; inconclusive means weak or mixed curves, or effect the other way; inactive means no such curve, though single readings can be large or run the other way; the % refers to the signal ratio); conditions: HEK293H PPARg-UAS-bla, beta-lactamase FRET ratio, 17 h
Sequence of UniProt P37231 (P37231 whole entry, looked up): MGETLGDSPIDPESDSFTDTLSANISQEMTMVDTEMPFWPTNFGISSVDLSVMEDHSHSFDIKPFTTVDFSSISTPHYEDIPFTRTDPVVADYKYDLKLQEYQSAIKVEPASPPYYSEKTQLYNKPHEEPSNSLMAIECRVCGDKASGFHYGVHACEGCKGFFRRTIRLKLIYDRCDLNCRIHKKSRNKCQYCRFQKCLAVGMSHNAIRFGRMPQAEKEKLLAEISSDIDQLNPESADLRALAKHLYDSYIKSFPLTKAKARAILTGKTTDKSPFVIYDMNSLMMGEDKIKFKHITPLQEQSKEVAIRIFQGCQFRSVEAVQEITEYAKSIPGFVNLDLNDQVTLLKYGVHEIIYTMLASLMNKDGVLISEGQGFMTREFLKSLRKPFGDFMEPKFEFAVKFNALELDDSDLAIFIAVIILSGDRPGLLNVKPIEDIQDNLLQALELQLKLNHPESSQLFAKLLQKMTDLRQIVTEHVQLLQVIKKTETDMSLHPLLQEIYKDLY
Method in brief: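 Stably transfected HEK293H cells (GeneBLAzer PPARg UAS-bla) were incubated with test substances for 17 h at 37C after a 5 h pre-incubation; beta-lactamase activity was then detected by FRET substrate fluorescence.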

[7] = target: Peroxisome proliferator-activated receptor gamma (Homo sapiens) (UniProt P37231); test: qHTS assay to identify small molecule antagonists of the peroxisome proliferator-activated receptor gamma (PPARg) signaling pathway (AID 743191; calls by dose curve; further: nearly all actives have a fitted effect of over 30% in size; on ratio activity, negative = inhibition: on the % scale 0 is the no-effect control and ±100 the full control effect); conditions: HEK293H PPARg-UAS-bla, beta-lactamase ratio, antagonist, 17 h
Method in brief: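 Beta-lactamase reporter under UAS control in HEK293H PPARg-bla cells; compound treatment 17 h at 37C. Read-out: fluorescence intensity after 1 h room-temperature incubation with LiveBLAzer B/G FRET substrate.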

[8] = target: Aromatase (Homo sapiens) (UniProt P11511); test: qHTS assay to identify aromatase inhibitors (AID 743083); conditions: MCF-7 aro ERE, testosterone-driven ERE luciferase, 24 h; activity, negative = inhibition: at 70.3 µM (top of the series); further: nearly all actives have a fitted effect of over 55% in size
Sequence of UniProt P11511 (P11511 whole entry, looked up): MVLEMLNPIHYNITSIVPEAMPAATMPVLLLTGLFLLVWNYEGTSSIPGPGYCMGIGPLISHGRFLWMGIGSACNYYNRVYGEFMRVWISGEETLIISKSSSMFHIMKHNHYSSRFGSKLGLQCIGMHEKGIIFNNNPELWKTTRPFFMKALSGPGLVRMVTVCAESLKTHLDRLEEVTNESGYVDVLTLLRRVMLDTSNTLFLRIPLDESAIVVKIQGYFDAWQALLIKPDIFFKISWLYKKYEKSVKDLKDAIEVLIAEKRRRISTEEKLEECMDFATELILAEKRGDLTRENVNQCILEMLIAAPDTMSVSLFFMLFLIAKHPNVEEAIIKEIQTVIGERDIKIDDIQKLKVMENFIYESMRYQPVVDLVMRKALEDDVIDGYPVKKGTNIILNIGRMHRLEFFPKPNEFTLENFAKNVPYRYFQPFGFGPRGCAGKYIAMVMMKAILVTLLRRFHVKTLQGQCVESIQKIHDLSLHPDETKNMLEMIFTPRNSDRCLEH

[9] = qHTS assay to identify aromatase inhibitors - cell viability counter screen (AID 743084); conditions: MCF-7 aro ERE viability, CellTiter-Fluor, 24 h; activity change, negative = cytotoxicity: at 70.3 µM (top of the series);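 further: cells stimulated with testosterone during compound exposure; nearly all actives have a fitted effect of over 55% in size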
[10] = qHTS assay to identify small molecule that activate the aryl hydrocarbon receptor (AhR) signaling pathway - cell viability counter screen (AID 743086); further: nearly all actives have a fitted effect of over 45% in size
Method in brief: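 Cytotoxicity counter screen: CellTiter-Fluor signal (30 min, 37 C) in 4000 HepG2 cells/well carrying the DRE-luciferase reporter, following 24 h compound exposure at 37 C.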

[11] = activity change, negative = inhibition: at 70.3 µM (top of the series) unless noted
[12] = activation: at 57 µM (top of the series) unless noted
[13] = ratio activity, negative = inhibition: at 62.6 µM (top of the series) unless noted
Potency means the concentration at half of the fitted maximal effect; tags describe the fitted curve by direction and shape or compound fluorescence and quenching.

Cc1occc1C(=O)Nc1ccc(C(=O)N2CCC(F)(F)/C(=C\C(=O)N3CCC(N4CCCCC4)CC3)c3ccccc32)cc1
inconclusive: Potency [1] 17 µM [inhibitor, partial curve] | Potency [2, 11] 0.191 µM [rising, single point] | Potency [3] 6.77 µM [cytotoxic, partial curve, poor fit]

C[C@]12C=CC(=O)C=C1[C@@H](F)C[C@@H]1[C@@H]2[C@@H](O)C[C@@]2(C)[C@H]1CC[C@]2(O)C(=O)CO
inconclusive: activation [1] 23.6% [phenotype inactive] and 22.3% [phenotype inactive] | Potency [2, 11] 26.6 nM [rising, full curve] and 47.3 nM [rising, full curve] | Potency [3] 7.5 µM [rising, full curve] | Potency [4] 473 nM [activator, full curve, poor fit] and 106 µM [activator, partial curve, poor fit] | Potency [5] 26.6 µM [rising, single point]

C=CC(=O)OCCC(=O)O
inconclusive: activation [1] 17.4% [phenotype inactive] [at 95 µM] | activity change, negative = inhibition ([2]; at 70.3 µM (top of the series)) 13.6% | activity change, negative = inhibition ([2]; at 95 µM (top of the series)) 13.3% | Potency [6, 12] 56.8 µM [activator, partial curve] | ratio activity, negative = inhibition [7, 13] 16.1% [at 81.1 µM]

CCCCC1C(=O)N(c2ccccc2)N(c2ccccc2)C1=O
inconclusive: Potency [1] 37.6 µM [activator, single point] | activity change, negative = inhibition [2, 11] 13.4% | ratio activity, negative = inhibition [7, 13] -26.2%
inactive: activity change, negative = inhibition ([2]; at 70.3 µM (top of the series)) 8.24% and 6.95% and 4.04% | Potency [4] | ratio activity, negative = inhibition ([7]; at 62.6 µM (top of the series)) 5.89% and -0.532%

CCOC(=O)NNc1nncc2ccccc12
inconclusive: activation [1] 15.9% [phenotype inactive] | Potency [3] 11.9 µM [cytotoxic, partial curve, poor fit]
inactive: Potency [2, 11] | Potency [7, 13]

COc1ccnc(CS(=O)c2nc3ccc(OC(F)F)cc3[nH]2)c1OC (stereo unspecified)
inconclusive: Potency [1] 33.5 µM [activator, partial curve, poor fit]
inactive: Potency [2, 11] | Potency [8] | Potency [7, 13]

CCC(C)C(C)=O (stereo unspecified)
active: Potency [1] 67 µM
inactive: Potency [2, 11] | Potency [3]

Cc1nn(C)c(Oc2ccccc2)c1/C=N/OCc1ccc(C(=O)OC(C)(C)C)cc1
inconclusive: Potency [1] 0.0017 µM [inhibitor, full curve] | Potency [2, 11] 0.0031 µM [falling, full curve] | Potency [3] 54.5 µM [cytotoxic, partial curve, poor fit] | Potency [8] 68.6 µM [inhibitor] | activity change, negative = cytotoxicity [9] -41.4% [cytotoxic] | Potency [7, 13] 43.6 µM [inhibitor, single point]

COc1ccc(C(=O)Nc2nc3ccccc3c(NCc3ccccc3)c2C#N)cc1
active: Potency [7, 13] 1.74 µM
inconclusive: Potency [1] 17.2 µM [inhibitor, partial curve, poor fit] | Potency [2, 11] 30.6 µM [falling, partial curve] | Potency [8] 0.611 µM [inhibitor, full curve] | Potency [9] 17.2 µM [cytotoxic, full curve] | Potency [10] 27.3 µM [falling, single point] | Potency [6, 12] 19.5 µM [inhibitor]

Cc1c(C)n(CCN(C)C)c2ccc(C(=O)OCCN(C)C)cc12
inactive: Potency [7, 13]
inconclusive: activation [1] 22.9% [phenotype inactive] | Potency [2, 11] 26.6 µM [rising, partial curve] | Potency [3] 26.6 µM [cytotoxic, partial curve] | Potency [4] 26.6 µM [activator, partial curve]

CCCCc1ccc(N)cc1
inconclusive: activation [1] 9.28% [phenotype inactive] | activity change, negative = inhibition [2, 11] 6.71% | Potency [5] 21.9 µM [cytotoxic, single point]
inactive: Potency [3] | Potency [9]

CC1=C(C)S(=O)(=O)CCS1(=O)=O
inconclusive: Potency [1] 47.7 µM [inhibitor, partial curve, poor fit] | activity change, negative = inhibition [2, 11] -14.6% | Potency [8] 67.3 µM [inhibitor, partial curve] | Potency [6, 12] 42.9 µM [activator, partial curve] and 24.5 µM [activator, partial curve] | ratio activity, negative = inhibition [7, 13] 11.8% and 22.3%

C=C(C)C(=O)Nc1ccc(Cl)c(Cl)c1
active: Potency [2, 11] 69.3 µM and 68.3 µM | Potency [4] 69.3 µM and 54.3 µM
inconclusive: Potency [1] 69.3 µM [inhibitor] | Potency [3] 68.3 µM [cytotoxic, partial curve, poor fit] | Potency [10] 12.3 µM [falling, partial curve, poor fit] and 60.9 µM [falling, partial curve, poor fit] | activation ([6]; at 57 µM (top of the series)) -14.9% | activation ([6]; at 78.9 µM (top of the series)) -14.3% | Potency [7, 13] 13.7 µM [inhibitor, partial curve, poor fit] | ratio activity, negative = inhibition [7, 13] -56.1% [at 81.1 µM] | Potency [5] 312 nM [cytotoxic, full curve, poor fit] and 24.4 µM [cytotoxic, partial curve]

CC(C)C[C@H](NC(=O)[C@H](Cc1ccccc1)NC(=O)c1cnccn1)B(O)O
active: Potency [2, 11] 66.8 nM and 53.1 nM | Potency [3] 1.06 µM and 668 nM | Potency [10] 376 nM and 335 nM | Potency [5] 0.0841 µM
inconclusive: Potency [1] 42.2 nM [inhibitor, full curve] and 33.5 nM [inhibitor, full curve] | Potency [6, 12] 75.6 nM [fluorescent, full curve] and 30.1 nM [fluorescent, full curve] | Potency [7, 13] 0.0668 µM [rising, full curve]

CCNC(=O)N1CCN(CCCC(c2ccc(F)cc2)c2ccc(F)cc2)CC1
inactive: Potency [4]
inconclusive: Potency [1] 10.6 µM [inhibitor, full curve] | Potency [2, 11] 29.8 µM [falling, partial curve] | Potency [8] 33.5 µM [inhibitor, single point] | Potency [9] 29.8 µM [cytotoxic, single point] | Potency [6, 12] 0.848 µM [rising, single point] | ratio activity, negative = inhibition [7, 13] -4.3%
active: Potency [3] 29.8 µM | Potency [10] 13.3 µM

CC1=CC[C@H](C(C)C)C=C1
inactive: Potency [1] | Potency [2, 11] | Potency [3] | Potency [5]

COC(OC)C(C)c1ccccc1 (stereo unspecified)
inactive: Potency [1] | Potency [2, 11] | Potency [3]

CSc1ccc(Oc2ccc(S(N)(=O)=O)cc2CN(C)C)cc1C
inconclusive: Potency [1] 68.6 µM [inhibitor] | Potency [2, 11] 68.6 µM [falling, single point] | Potency [8] 54.5 µM [inhibitor, single point] | ratio activity, negative = inhibition [7, 13] -45%

O=[N+]([O-])c1cc[n+]([O-])cc1
inconclusive: Potency [1] 61.1 µM [inhibitor, single point] | Potency [2, 11] 68.6 µM [falling, single point] | Potency [8] 68.6 µM [inhibitor, single point] | Potency [9] 77 µM [cytotoxic, partial curve, poor fit] | Potency [7, 13] 49 µM [fluorescent, partial curve, poor fit] | Potency [5] 1.1 µM [cytotoxic, full curve, poor fit]

COCCCCCCCCOCCC[Si](C)(O[Si](C)(C)C)O[Si](C)(C)C
inconclusive: Potency [1] 7.7 µM [inhibitor, partial curve] | Potency [2, 11] 6.86 µM [falling, full curve] | Potency [3] 6.86 µM [cytotoxic, full curve] | Potency [7, 13] 24.5 µM [activator, partial curve, poor fit] | Potency [5] 30.9 µM [cytotoxic, partial curve, poor fit]
active: Potency [9] 30.6 µM

O=C1c2cccc3c2[C@H](CCC3)CN1[C@@H]1CN2CCC1CC2
inactive: Potency [1] | Potency [4]
inconclusive: activity change, negative = inhibition [2, 11] -9.6% | Potency [3] 13.3 µM [cytotoxic, full curve] | Potency [10] 21.1 µM [falling, partial curve] | ratio activity, negative = inhibition [7, 13] 2.85%

CCCOC(=O)c1ccc(N)cc1
inconclusive: Potency [1] 33.5 µM [activator, single point] | Potency [2, 11] 18.8 µM [rising, partial curve] | Potency [4] 8.41 µM [activator, partial curve] | ratio activity, negative = inhibition [7, 13] -21.1%
inactive: Potency [3] | Potency [5]

CCN(CC)CCNc1ccc(CNC=O)c2sc3ccc(OC)cc3c(=O)c12
inconclusive: Potency [2, 11] 1.54 µM [rising, full curve] | Potency [4] 34.4 µM [activator, partial curve] | activation [6, 12] -19.5% | Potency [5] 61.6 µM [cytotoxic, partial curve, poor fit]
active: Potency [1] 2.73 µM | Potency [3] 4.86 µM | Potency [7, 13] 12.3 µM
